We go through 100 compounds from publication PMC6919601, “Identification of Plasmodium dipeptidyl aminopeptidase allosteric inhibitors by high throughput screening” (PLoS ONE, 2019).

Screen size: about 110,000 compounds; about 230 (0.21%) showed an effect of 50% or more. The list shows a part of the results.
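Also: 30 min substrate incubation versus DMSO and 10 µM JCP410 controls.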

For this experiment, the target named is DPAP1 (Plasmodium falciparum, UniProt Q8IIJ9). The experiment can be described thus: primary screen, percent inhibition; read by cleavage of a fluorogenic dipeptide substrate; higher = more effect of the substance. More on the design: species or system P. falciparum D10 trophozoite lysates; single well.
DPAP1, sequence (Q8IIJ9 whole entry, looked up): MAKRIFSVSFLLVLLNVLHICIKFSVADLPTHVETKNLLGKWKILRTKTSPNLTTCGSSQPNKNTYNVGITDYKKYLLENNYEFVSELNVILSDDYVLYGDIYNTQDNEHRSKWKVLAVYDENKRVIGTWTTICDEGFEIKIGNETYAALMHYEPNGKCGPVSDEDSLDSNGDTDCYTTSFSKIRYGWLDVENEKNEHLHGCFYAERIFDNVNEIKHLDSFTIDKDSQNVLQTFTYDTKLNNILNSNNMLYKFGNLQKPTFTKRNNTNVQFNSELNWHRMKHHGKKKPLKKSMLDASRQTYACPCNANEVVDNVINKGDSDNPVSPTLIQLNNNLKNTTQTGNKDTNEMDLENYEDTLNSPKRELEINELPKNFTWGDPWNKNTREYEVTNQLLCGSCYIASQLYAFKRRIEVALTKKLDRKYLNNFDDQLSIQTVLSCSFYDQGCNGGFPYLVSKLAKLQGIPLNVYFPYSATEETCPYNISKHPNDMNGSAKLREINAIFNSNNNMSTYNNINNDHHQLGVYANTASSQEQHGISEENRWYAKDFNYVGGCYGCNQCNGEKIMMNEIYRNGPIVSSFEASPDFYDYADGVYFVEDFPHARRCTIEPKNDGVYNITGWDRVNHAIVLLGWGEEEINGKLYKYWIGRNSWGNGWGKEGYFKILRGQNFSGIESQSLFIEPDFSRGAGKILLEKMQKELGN
As to `COc1ccc(-n2cnc3nc(C)c(C(=O)/C=C/N(C)C)c(-c4ccccc4)c32)cc1`, the “% Inhibition @ 10 uM” value is recorded as -1.48%.
As to `CCOc1ccc(C2C(C#N)=C(N)Oc3cc(C)n(CC4CCCO4)c(=O)c32)cc1OC` (stereo not shown), the “% Inhibition @ 10 uM” value was -1.11%.
For `Cc1ccsc1-c1ncnn1-c1ccc([N+](=O)[O-])cc1`, the “% Inhibition @ 10 uM” value is on record as -1.96%.
On to `CCC(C(=O)Nc1nn2c(-c3ccc(OC)c(OC)c3)nnc2s1)c1ccccc1` (stereo not shown), for which the “% Inhibition @ 10 uM” value is listed as -1.87%.
The same measure for `Cc1cc(O)nn2ncnc12`: 3.36%; for `Cc1ccc(C(=O)O)cc1NC(=O)C1CCCO1` (stereo not shown): -7.09%.
With `CCCS(=O)(=O)c1c(S(=O)(=O)CCC)c2c3ccccc3ccn2c1C(=O)OC`, the “% Inhibition @ 10 uM” value is listed as 2.34%.
Regarding `CSc1ccc(C2C(C#N)=C(N)Oc3c2ccc2ccccc32)cc1` (stereo not shown), the “% Inhibition @ 10 uM” value was 2.13%.
Take `Cc1cccc(-c2nc(CSCC(=O)N3CCN(c4ccccn4)CC3)c(C)o2)c1`: the “% Inhibition @ 10 uM” value worked out at 2.37%.
`COc1cc(CNCC2CCCO2)ccc1OCc1ccccc1` (stereo not shown): the “% Inhibition @ 10 uM” value is listed as -3.25%.
Take `CC1CCC(N2CCN(CCO)CC2)C1` (stereo not shown): the “% Inhibition @ 10 uM” value is given as -1.41%.
As for `CC1CN(C(=O)c2ccc(COc3ccc(C(C)(C)C)cc3)cc2)CC(C)O1` (stereo not shown), the “% Inhibition @ 10 uM” value worked out at 0.413%.
Turning to `O=[N+]([O-])c1ccc(N2CCOCC2)c2ncccc12`, the “% Inhibition @ 10 uM” value is given as 2.5%.
Turning to `CCn1c(S)nnc1-c1ccccc1OC`, the “% Inhibition @ 10 uM” value is recorded as -5.51%.
The same measure for `Cc1ccc(Cl)cc1N1CCN(C(=O)CNS(=O)(=O)c2ccccc2)CC1`: -7.08%; for `CC(C)CCn1c(CN2CCN(CCO)CC2)nc2c1c(=O)n(C)c(=O)n2C`: 2%.
The same measure for `Oc1cccc(Nc2nc(N3CCOCC3)c3ccccc3n2)c1`: 2.97%.
As for `CCN(CC)c1ccc(CN2CCN(C=O)CC2)cc1`, the “% Inhibition @ 10 uM” value turned out to be 0.472%.
On to `Cc1ccc(C)c(Cn2c3ccccc3c3cnn(CC(=O)NCC4CCCO4)c(=O)c32)c1` (stereo not shown), for which the “% Inhibition @ 10 uM” value amounted to 1.8%.
In the case of `Cc1ccc(C2CC(=O)CC(c3ccccc3)S2)cc1` (stereo not shown), the “% Inhibition @ 10 uM” value was 4.67%.
Consider `Cc1ccnc(NC(=O)CCC2CCCC2)c1`, for which the “% Inhibition @ 10 uM” value came to 0.907%.
On to `CC1(C)CC(=O)C2=C(C1)N(c1nc[nH]n1)C(N)=C(C#N)C2c1cccnc1` (stereo not shown), for which the “% Inhibition @ 10 uM” value was -4.61%.
The same measure for `CCC(C)C(=O)Nc1ccc(NC(=O)c2ccco2)cc1` (stereo not shown): 2.84%.
With `Cc1nc2ccn(Cc3cccnc3)c(=O)c2cc1C(=O)N1CCOCC1` the figure was 0.411%; with `CN(Cc1ccccc1)C(=O)C1CCN(c2nnc(-n3cccc3)s2)CC1`, -2.25%.
With `CCC(C)Sc1nc(O)c2cnn(-c3ccccc3)c2n1` (stereo not shown) the figure was 0.208%; with `COCCCn1c(=O)c(C#N)cc2c(=O)n3ccccc3nc21`, 1.12%.
In the case of `COc1ccccc1N(CC(=O)Nc1ccccc1Cl)S(=O)(=O)c1ccccc1`, the “% Inhibition @ 10 uM” value is -5.27%.
On to `CC(C)NCC(O)COc1ccc(Cl)cc1` (stereo not shown), for which the “% Inhibition @ 10 uM” value is recorded as -3.27%.
`Cn1nnc2sc(-c3ccccc3)cc2c1=O`: the “% Inhibition @ 10 uM” value is 2.41%.
With `O=c1c2oc3ccccc3c2n(Cc2ccc(F)cc2)c(=O)n1Cc1ccccc1` the figure was 2.22%; with `CCO/C(O)=C(\C#N)c1ccc(N2CCCCC2)nn1`, 0.937%; with `Cc1ccc(C(=O)Nc2ccc(S(=O)(=O)N3CCc4ccccc43)cc2)cc1`, -2.3%.
Turning to `Cc1noc(NS(=O)(=O)c2ccc(NC(=O)c3ccc(C(C)C)cc3)cc2)c1C`, the “% Inhibition @ 10 uM” value is reported as -1.42%.
Turning to `c1cc(-c2nc3ccccc3s2)nc(-c2nc3ccccc3s2)c1`, the “% Inhibition @ 10 uM” value was -4.35%.
Turning to `CCOc1ccccc1N1CCN(C(=O)C2CC3CCC2C3)CC1` (stereo not shown), the “% Inhibition @ 10 uM” value was found to be 4.88%.
Turning to `O=C(Nc1ccc(Cl)c(Cl)c1)c1cc2ccccc2cc1O`, the “% Inhibition @ 10 uM” value stood at 2.54%.
In the case of `CCc1ccc(CNCC2CCCO2)cc1` (stereo not shown), the “% Inhibition @ 10 uM” value was determined as 3.92%.
For `COc1ccc(C(=O)N(Cc2ccccc2)c2ccccn2)c(OC)c1`, the “% Inhibition @ 10 uM” value was -10.6%.
On to `O=C1CC(NCc2ccc3c(c2)OCO3)C(=O)N1c1ccc(Br)cc1` (stereo not shown), for which the “% Inhibition @ 10 uM” value is given as -4.39%.
As to `O=C(NCCCN1CCOCC1)C1c2ccccc2C(=O)N(C2CCCC2)C1c1cccs1` (stereo not shown), the “% Inhibition @ 10 uM” value is recorded as -5.3%.
As for `O=C1C2CC=CCC2C(=O)N1CNc1cccc(Cl)c1` (stereo not shown), the “% Inhibition @ 10 uM” value was determined as 3.65%.
`CC(C)(C)c1ccc(-c2noc(CCC(=O)NCc3ccco3)n2)cc1`: the “% Inhibition @ 10 uM” value was -3.12%.
`c1ccc(-c2n[nH]c(-c3ccccn3)n2)nc1`: the “% Inhibition @ 10 uM” value worked out at 0.884%.
The same measure for `O=C(O)c1ccccc1-c1ccccc1C(=O)Nc1cnc(O)nc1O`: -6.93%; for `Cn1c(=O)c2c(ncn2CC(=N)N2CCOCC2)n(C)c1=O`: 1.62%.
In the case of `Cc1ccc(-n2nc3c(N4CCC(C(=O)N5CCC6(CC5)OCCO6)CC4)nnc(C)c3c2C)cc1`, the “% Inhibition @ 10 uM” value was 10.7%.
As for `Cc1cc(C)cc(OCC(=O)Nc2nc(C)c(C)s2)c1`, the “% Inhibition @ 10 uM” value stood at 3.26%.
With `CC(=O)Nc1ccc(N2C(=O)C(O)=C(C(=O)c3ccc(Cl)cc3)C2c2ccccc2F)cc1` (stereo not shown) the figure was -0.545%; with `CCOc1ccc(NC(=O)Nc2ccc3nsnc3c2)cc1`, -4.14%.
With `COc1cc(Cl)cc(/C=C/c2ccc3cccc(O)c3n2)c1OC` the figure was -0.85%.
As to `Cc1nnc2c(Oc3ccc(Cl)cc3)nc3ccccc3n12`, the “% Inhibition @ 10 uM” value was -5.28%.
On to `CC[C@H](NC(=O)C(CC(=O)N1CCOCC1)CS(=O)(=O)Cc1ccccc1)C(=O)c1nc2ccccc2s1` (stereo partly shown), for which the “% Inhibition @ 10 uM” value stood at 2.86%.
With `CC1Cc2cc(C(=O)C3=C(O)C(=O)N(CC4CCCO4)C3c3ccccc3)ccc2O1` (stereo not shown) the figure was -5.49%; with `O=C(COc1ccccc1Cl)Nc1ccc(S(=O)(=O)N2CCc3ccccc32)cc1`, -6.05%.
In the case of `CCOC(=O)N1CCN(C(=O)NC2(C(F)(F)F)Oc3ccc(Cl)cc3O2)CC1` (stereo not shown), the “% Inhibition @ 10 uM” value turned out to be 0.457%.
With `O=C1NN(c2ccc(Cl)c(Cl)c2)C(=O)/C1=C/c1ccc(N2CCOCC2)cc1` the figure was -5.11%; with `O=C(Nc1ccc(Cl)c(Cl)c1)c1ccco1`, 6.09%.
As for `COc1cccc(OCC(O)CN2CCN(c3ccccn3)CC2)c1` (stereo not shown), the “% Inhibition @ 10 uM” value was found to be 3.65%.
Regarding `O=C(NCC1CCCO1)C1CC(c2ccc(F)cc2)=NO1` (stereo not shown), the “% Inhibition @ 10 uM” value amounted to 1.24%.
`Cc1nnc2sc(-c3cccc(F)c3)nn12`: the “% Inhibition @ 10 uM” value is recorded as -2.91%.
The same measure for `COC(=O)[C@@H](CC(C)C)NC(=O)[C@H]1CCCN1C#N`: 0.744%.
With `Cc1cc(C)c(C)c(S(=O)(=O)NCC(=O)N2CC(C)CC(C)C2)c1C` (stereo not shown) the figure was 0.709%.
The same measure for `CC(C)c1ccc(N(CC(=O)N2CCCCCC2)S(C)(=O)=O)cc1`: -14.5%.
Take `CC(C)(C)NCc1cccn1-c1sc2c(c1C#N)CCCC2`: the “% Inhibition @ 10 uM” value is recorded as 3.01%.
Take `Cn1c(C(=O)N2CCCC(C(=O)N3CCN(C(=O)c4ccco4)CC3)C2)cc2sccc21` (stereo not shown): the “% Inhibition @ 10 uM” value was -0.883%.
`Nc1ccccc1C(=O)Nc1ccccc1Cl`: the “% Inhibition @ 10 uM” value is reported as -8.06%.
As to `CC1CCC(N2CCCC(C(N)=O)C2)CC1` (stereo not shown), the “% Inhibition @ 10 uM” value is reported as -1.5%.
Turning to `CC(=O)N(CN1C(=O)c2cc(Cl)c(Cl)cc2C1=O)c1ccccc1`, the “% Inhibition @ 10 uM” value is listed as -0.28%.
`CCC(C)Nc1nc2c(S(=O)(=O)c3cc(C)ccc3C)nnn2c2ccccc12` (stereo not shown): the “% Inhibition @ 10 uM” value amounted to 7.82%.
Turning to `COc1cccc(C2CC(c3ccccc3C)n3ncnc3N2)c1` (stereo not shown), the “% Inhibition @ 10 uM” value is 1.73%.
In the case of `COc1c(S(=O)(=O)Nc2cccc(-c3cn4ccsc4n3)c2)ccc(Cl)c1Cl`, the “% Inhibition @ 10 uM” value is reported as 7.05%.
With `Oc1ccccc1-c1nc(Nc2cccc(F)c2)c2ccccc2n1`, the “% Inhibition @ 10 uM” value is -1.48%.
The same measure for `Cc1nc2ccc(S(=O)(=O)NC(CC(C)C)C(=O)N3CCC(Cc4ccccc4)CC3)cc2s1` (stereo not shown): -4.97%.
In the case of `Cn1c2c(c(=O)n(C)c1=O)C(c1ccc(F)cc1F)C(C#N)=C(N)O2` (stereo not shown), the “% Inhibition @ 10 uM” value is 1.4%.
In the case of `Cc1cc(-c2ccccc2)n2ncc(-c3ccc(Cl)cc3)c2n1`, the “% Inhibition @ 10 uM” value turned out to be 1.72%.
With `CCN1C=C(C(=O)OC)C(c2cccc(C)c2)C(C(=O)OC)=C1` the figure was 0.238%; with `Cc1ccc(CN(C(=O)C(C)Oc2ccccc2Cl)C2CCS(=O)(=O)C2)o1` (stereo not shown), 0.362%.
Regarding `Cc1ccc(CNC(=O)C2CSC(c3cccs3)=N2)cc1` (stereo not shown), the “% Inhibition @ 10 uM” value was -0.406%.
Turning to `Cc1ccccc1NC(=O)C1C(=O)N(CCO)C2(C)CC1c1ccccc1O2` (stereo not shown), the “% Inhibition @ 10 uM” value amounted to 4.03%.
With `O=C(CN1C(=O)c2cccc3cccc1c23)Nc1ccc(F)cc1` the figure was 2.87%; with `CCOC(=O)c1c(C)c(-c2ccccc2)n(CC(=O)NC(C)CC)c1C` (stereo not shown), 3.32%.
The same measure for `CNS(=O)(=O)c1cn(CC(=O)Nc2cc(C)ccn2)cc1S(=O)(=O)NC`: -3.99%.
Regarding `O=S(=O)(Nc1ccc(F)cc1)c1ccc(F)cc1`, the “% Inhibition @ 10 uM” value is recorded as 3.85%.
For the compound `O=C(Nc1ccccc1Oc1ccccc1)C(F)(F)F`, the “% Inhibition @ 10 uM” value is reported as -1.96%.
`COc1ccc(-c2onc(C)c2C)cc1S(=O)(=O)NCC1CCCO1` (stereo not shown): the “% Inhibition @ 10 uM” value was 10.1%.
With `O=C(NCc1ccc2c(c1)OCO2)C(NS(=O)(=O)c1cccc2nsnc12)c1ccccc1` (stereo not shown) the figure was 5.21%.
For the compound `COCCCNC(=O)CN(Cc1ccccc1)S(=O)(=O)c1ccc(Cl)cc1`, the “% Inhibition @ 10 uM” value is on record as -1.6%.
The same measure for `CCC1CCCCN1CCCNC(=O)c1cn(CC)c(=O)c2cc(OC)c(OC)cc12` (stereo not shown): -2.49%; for `O=S(=O)(NCCc1c[nH]c2ccccc12)c1ccc(-n2cnnn2)cc1`: -6.56%; for `O=C(C1CC(=O)N(C2CCCC2)C1)N1CCC(c2c[nH]c3ccccc23)(c2c[nH]c3ccccc23)CC1` (stereo not shown): -6.01%.
As to `Cc1ccc2nc(NCCO)c3nnnn3c2c1`, the “% Inhibition @ 10 uM” value is listed as -9.49%.
With `O=C(Cn1ccc2cc(S(=O)(=O)N3CCCC3)ccc21)NCCC1=CCCCC1`, the “% Inhibition @ 10 uM” value was -9.08%.
`CN1CCN(S(=O)(=O)c2cc(Cl)ccc2Cl)CC1`: the “% Inhibition @ 10 uM” value is recorded as 5.56%.
With `COc1ccc(C2CC(C(F)(F)F)n3ncc(C(=O)O)c3N2)cc1` (stereo not shown), the “% Inhibition @ 10 uM” value was -0.67%.
In the case of `Cc1cccc(CCNC(=O)CN2CC(c3ccccc3)CC2=O)c1` (stereo not shown), the “% Inhibition @ 10 uM” value is recorded as -2.27%.
With `CCc1cccc(-n2nnc(-c3nc(-c4ccc5c(c4)OCO5)no3)c2N)c1` the figure was -5.65%.
The same measure for `C=CCS(=O)(=O)c1ccc2ccccc2c1`: -2.45%; for `CN(C)c1ccc2c(c1)C(=O)c1ccccc1C2=O`: 2.54%; for `C=CCN1C(=O)/C(=C2/Sc3ccccc3N2C)S/C1=N\c1c(C)n[nH]c1C`: 12.7%.
